The subject of one test is NCI-H460 lung. The test is described as follows: NCI-60 one-dose screen, 48 h (100 = growth as untreated, 0 = no growth, -100 = all killed). The conditions noted are these: 2.5 mM.
Another test concerns HOP-92 NSCLC. The test is described as above. As to conditions: 2.5 mM.

Each structure is given as a SMILES string. A structure can be active in one record and inactive in another.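 The test compound was applied at a single concentration to cells in 96-well plates for 48 hours, and percent growth was recorded.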 A number of entries come with more than one value. The list is limited to them. The calls were made as follows: active = growth percent below 10; inactive = the rest. There may be further records. This drug was run again and again over the years, at its own concentration, as given; each value is one run. Counts like (3×) give the number of equal values in this list.

As to `O=c1[nH]cc(F)c(=O)[nH]1`, the growth entry is “active: -28.5, -100, -76.5, -46.7, -36.9, -61.9, -87.9, 3.77, -32.2, -43, -63.7, -39.2, -70.1, -27.8, -53.6, -77.2, -65.3, -24.3, -34 (2×), 5.11, -71.7, -74.7, -24.1, -24, -38.3, -9.38, -42.8, -8.41, 1.81, -32.3, -10.3, 2.25, -21.5, -11.6, -42.1, -20.5, 5.26, 0.28, 8.17, -7.04, 0.0869, -27.4, -6.12, 3.06, 5.31, -37.1, -28.4, -25.6, -3.7%” in the test with NCI-H460 lung (runs of 1996); “inactive: 16.8, 26.4, 31, 13, 24.6% and active: -33, -68.1, -40.1, -49.1, 1.18, 1.2, -62.1, -61.6 (2×), -63.4, -31.9, -83.3, 0.238, -39.2, -51.7, 2.01, -5.35, -12.3, 2.02, -48.4, -4.71, -75.1, -22.4, -25.4, -40.5, -2.91, 5.67, -17.8, -43.8, -24, 2.31, -62.2, -36.3, -22.3, 5.94, 6.49, 5.95, -22.7%” in the test on NCI-H460 lung (runs of 1997); “active: 2.95, -0.417, -5.68, 4.25, 1.36, -11.6, -4.04, -8.99, -47.3, -30.9, 7.59, 0.508, -26, 7.54, 2.65, -35.7, -54.4, -18.6, -8.87, -9.07, 1.13% and inactive: 18.7%, 11.6%, 15.5%” in the test with NCI-H460 lung (runs of 1998); “inactive: 16.5% and active: -23, -42.7, -77.5, -66.6, 1.06, 1.45, -2.5, 1.3, -8.06, -19.6, -22.9, 1.89, 1.92, -21.9, 2.1, 0.715, 0.857, -13.8, -5.65, 0.37, 1.31, 1.66, 2.59, 4.21, -5.81, -100 (2×), -57, 0.237, -30.2, -48.5, 0.671, 0.455, -1.4, 0.399, -29.9, -37.8, -65.6, -92.4, -77.6%” in the test on NCI-H460 lung (runs of 1999); “active: -44.5, -36.6, 0.967, -53.3%” in the test on NCI-H460 lung (runs of 2000); “inactive: 17.5, 38.5, 36.5, 49.2, 33.6, 45.3, 46.4, 68.1, 47.5, 59.2, 47.2% and active: -6.34%, -4.02%, 1.95%” in the test on HOP-92 NSCLC (runs of 1991). Besides, the growth entry was “inactive: 38.6, 36 (2×), 61.5, 54.8, 41.1 (2×), 33.6, 85.9, 25.8, 12.4, 60.2, 36.1 (2×), 59.5, 20.5, 49.3, 47.9, 54.2, 83.3, 48.3 (2×), 28.2, 23.7, 41.5, 48.7, 28.6, 39.6, 52.2, 34.8, 52.5, 32.7, 66.8, 48 (2×), 34.4 (2×), 29.2, 40.3, 34.5, 10.5, 10.8, 39.9, 21.3, 52.6 (2×), 69.4, 49.7, 22.5, 61, 26.2, 12.2, 25.7, 35.8 (2×), 20.2, 51.9, 43.5, 37.6, 46.9, 39.5, 49.5, 32.4, 45.4, 50.8, 52.9, 44.2, 41.7, 54.9, 38.1, 87.6, 50.1, 12.5, 34, 35.9, 43.4, 20.8, 27.5, 56.1, 61.8, 29.6, 65.4, 18.5, 47.8, 44.5, 50.6, 42.9, 61.2% and active: -11.7, -5.19, 6.21, -2.27, -8.32, -4.1, -4.94, -9.82, -13.1, 1.5, -9.74, -4.76, 8.58%” in the test with HOP-92 NSCLC (runs of 1992); “active: 9.06, -5.8, 2.75, -8.91% and inactive: 29.8, 41.5, 39.3, 48.9, 27.1, 41.1, 44.5, 39.5, 20.6, 70, 40.4, 52.3, 47.1, 50.1, 54, 63.8, 31.9, 43.4, 49, 34.3, 44.2, 40.3, 63.4, 21.7, 57.4, 63.5, 22.6, 27.9, 46.3, 61.6, 60.3, 80%” in the test on HOP-92 NSCLC (runs of 1993); “inactive: 16.1, 23.1, 72.7, 45.6, 29.8, 71.3, 24.2, 31.1, 43.8, 33.6, 33.2, 50.4, 11.8, 61.6, 34.8, 45.2, 49.8, 21.4, 67.9, 61.3, 59.1, 29.7, 33.7, 31.7, 34.6, 17.1% and active: -14.7, 6.88, -10.6, -10.3%” in the test with HOP-92 NSCLC (runs of 1994); “inactive: 49.1, 14.4, 12.4, 34, 24.1, 54.6, 24.3, 45.4, 16, 32.4, 29.9, 22.1, 13.2 (2×), 26, 30.1, 45.8, 35.1, 80.2, 27.4, 37.6, 12.3, 42.4, 46.8, 28.7% and active: 9.73, -1.66, -1.06, -14.9, -0.395, -1.85, -4.63, 2.46, -45.6%” in the test with HOP-92 NSCLC (runs of 1995); “inactive: 73, 39.9, 24.1, 16.5, 38.1, 40.7, 53.4, 56.1, 56.2, 69.6, 20.9, 63.7, 47.5, 14.9, 48.2, 51.9, 32.6 (2×), 54.7, 79, 59.9, 44, 89.3, 60.2, 58.8, 86.6, 39.2, 51.6, 20.1, 44.5, 25.3, 32.8, 67, 76.7, 57.8, 40.9% and active: -0.917, -10.6, 8.46, -3.11, 9.92, -15.8%” in the test on HOP-92 NSCLC (runs of 1996); “inactive: 48.1, 103, 14.6 (2×), 31.2, 44.6, 16.4, 30.8 (2×), 30.4, 40.6 (2×), 52.6, 21.3, 34.2, 112, 46.9, 34.6, 49.3, 34.4, 48.6, 32.6, 47.7, 34.3, 50.2, 32.7, 74.2, 45.9, 33.2, 55.1, 27.2% and active: -0.261, -19.6, 8.15, 6.73, -7.77, -8.12, -2.99%” in the test with HOP-92 NSCLC (runs of 1997). For the same compound, the growth entry with HOP-92 NSCLC (runs of 1998) was “inactive: 113, 33.8, 43, 87.5, 59.4, 46.5, 49.1, 73.3, 14, 32.7, 44.7, 56, 54.9, 45.6, 55.2, 68.8, 46.9, 42.5, 31.5, 44.1, 56.9, 78% and active: -8.12%, -6.41%”; in the test on HOP-92 NSCLC (runs of 1999), “active: -8.47, -20.8, -0.12, -35.4, -24.1, 5.4, -48.6, -11.6, -47.2, -50.9% and inactive: 77.7, 19.9, 59.5, 20, 11.2, 11.8, 10.4%”; in the test with HOP-92 NSCLC (runs of 2000) it was “active: 0.497, 5.45, -3.14, -27.9%”.

The values above are taken from PubChem BioAssay (NCI).
